The values below come from PubChem BioAssay AID1346428 (National Center for Advancing Translational Sciences (NCATS), 2018).

The structures appear in SMILES notation. In all, about 48,000 compounds went through this assay and about 1,200 (2.5%) were called active. Another 2% or so got no clear call; they are omitted.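 Rule for the calls: active = activation of at least 60% and not above a set upper limit (about 1 call in 100 departs from these limits); inconclusive = activation of 40% to 60%, or above that upper limit; inactive = activation under 40%.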 This is one part of the list.

The target of this assay is Probable G-protein coupled receptor 32 (Homo sapiens) (UniProt O75388). Kind of assay: qHTS for Agonists of Human Resolvin D1 Receptor DRV1. Note: 0% is about no effect. Conditions: CHO-K1 GPR32 beta-arrestin PathHunter luminescence, 90 min; at 76.9 µM; stronger effect = higher value; zero percent set by DMSO-only wells. In a few lines: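 Agonism was scored as beta-arrestin recruitment to ProLink-fused GPR32 in stably transfected CHO-K1 cells, giving a chemiluminescent beta-Gal signal; compounds were incubated 90 min at 37 °C.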
UniProt O75388, sequence (O75388 whole entry, looked up, the tested form may be a part): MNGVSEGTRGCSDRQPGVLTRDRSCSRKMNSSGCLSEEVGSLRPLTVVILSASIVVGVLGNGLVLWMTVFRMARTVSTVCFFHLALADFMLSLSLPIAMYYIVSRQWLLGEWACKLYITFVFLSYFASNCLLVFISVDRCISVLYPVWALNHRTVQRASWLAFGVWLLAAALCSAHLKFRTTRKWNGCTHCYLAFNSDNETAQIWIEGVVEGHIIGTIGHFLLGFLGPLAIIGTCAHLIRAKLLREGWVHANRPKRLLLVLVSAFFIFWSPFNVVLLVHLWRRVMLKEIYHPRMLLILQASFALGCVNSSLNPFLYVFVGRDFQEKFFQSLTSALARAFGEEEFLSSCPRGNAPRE
(In general: qHTS replaces the single test concentration by a dilution series.)
`Cc1c(C(=O)OC2CCCCCC2)[nH]c2c1C(=O)CC(c1ccccc1Cl)C2` (centres undefined): the activation was inactive: -3.29%.
The figure for `CCOC(=O)c1c(S(=O)(=O)N2CCC(C(=O)Nc3cccc(C#N)c3)CC2)c(C)n(C)c1C` is inactive: -1.44%.
The value for `O=C(CN1C(=O)COc2ccc(S(=O)(=O)Nc3ccccc3)cc21)NCc1ccccc1Cl` was inactive: 5.01%.
The value for `COc1ccc(NC(=O)Cn2c(=O)n(CCc3ccccc3)c(=O)c3sc4ccccc4c32)cc1` was inactive: -5.44%; that for `Cc1cc(C)nc(-n2nc(C)c3c2NC(=O)CC3c2ccccc2OC(C)C)n1` (centres undefined) was inactive: -14.7%.
On to `COc1ccc(CCNc2nc(SCc3ccccc3Cl)nc3ccccc23)cc1OC`, for which the activation was inactive: -19.5%.
The value for `CCOC(=O)c1ccc(N2C(=O)c3[nH]nc(-c4ccccc4)c3C2c2cccs2)cc1` (centres undefined) was inactive: -21%.
The value for `Cc1ccnc(NS(=O)(=O)c2ccc(NC(=O)c3cc(=O)c4ccc(C)c(C)c4o3)cc2)n1` was inactive: -5.73%.
Consider `COC(=O)c1ccc(CSc2nc3c([nH]c4ccccc43)c(=O)n2-c2cccc(OC)c2)o1`, for which the activation is inactive: -4.45%.
The value for `Cc1ccc2nc(N3CCN(C(=O)C4COc5ccccc5O4)CC3)sc2c1` (centres undefined) was inactive: -15.7%; that for `COc1ccc(/C=N/NC(=O)c2ccncc2)cc1OC` was inactive: 3.32%.
For the compound `COc1ccc(-c2nc3ccccc3o2)cc1NC(=O)c1ccc(N2CCC(C)CC2)c([N+](=O)[O-])c1`, the activation is inactive: -5.96%.
Consider `COc1ccc(CNC(=O)c2cc3c(=O)n(Cc4cccs4)ccc3nc2C)cc1`, for which the activation was inactive: -24.5%.
Regarding `CCOC(=O)c1sc(NC(=O)c2nc(SCC)ncc2Cl)c(C(=O)OCC)c1C`, the activation is inactive: -4.49%.
As for `CN(C)CCNC(=O)Cc1ccc(NC(=O)N2CCCCc3ccccc32)cc1`, the activation was inactive: -9.18%.
Consider `COc1ccc(Cl)cc1NC(=O)c1c(C(=O)Nc2cccc(C)c2C)sc2nc(C)cc(=O)n12`, for which the activation is inactive: 10.9%.
The value for `CCOC(=O)c1cc(-c2ccc(C)cc2)n(CC(=O)Nc2cccc(C(C)=O)c2)c1C` was inactive: -2.67%.
`Cc1ccc(C(=O)c2cn(Cc3ccc(F)cc3)c3nc(C)ccc3c2=O)cc1`: the activation was inactive: 4.77%.
As to `COCCCn1c(=N)c(S(=O)(=O)c2ccccc2)cc2c(=O)n3cccc(C)c3nc21`, the activation is inactive: 1.87%.
With `CC1(C)CC(=O)c2cc(C(=O)Nc3ccc(Br)cc3)c(=O)n(-c3ccc(Cl)cc3)c2C1`, the activation is inactive: -5.23%.
The value for `Cc1oc(-c2ccccc2F)nc1Cn1c(SCc2ccccc2F)nc2ccncc21` was inactive: -19.7%; that for `CCn1cc2nc(SCc3cc(C)ccc3C)n(Cc3ccc(C)cc3)c(=O)c2n1` was inactive: -20.9%.
Consider `Cc1ccccc1OCc1nc2c3cnn(-c4ccccc4Br)c3ncn2n1`, for which the activation was inactive: -0.726%.
With `COc1ccccc1N1CCN(C(=O)CCSCc2ccccc2F)CC1`, the activation is inactive: -15.1%.
The value for `COc1ccc(Nc2oc(/C=C/c3ccc(F)cc3)nc2C#N)cc1` was inactive: -29.8%; that for `Cc1ccc(C2c3cccn3CCN2S(=O)(=O)c2ccc([N+](=O)[O-])cc2)cc1` (centres undefined) was inactive: -3.84%; that for `O=C(Cn1c(=O)oc2ccccc21)NCc1ccccc1Cl` was inactive: -9.46%.
On to `O=C(CSc1nc(-c2ccco2)nc2cc(=O)[nH]n12)Nc1ccccc1Cl`, for which the activation is inactive: 25.7%.
The figure for `CCOc1ccc2ncc3c(-c4ccccc4)nn(CC(=O)Nc4cccc(F)c4)c3c2c1` is inactive: -2.37%; for `COc1ccc(-n2c(-c3ccc(F)cc3)cn3c4c(=O)n(C)c(=O)n(C)c4nc23)cc1` it is inactive: -22.3%.
The value for `COc1ccccc1CNC(=O)Cn1c(=O)oc2ccccc21` was inactive: -13.6%; that for `COc1cc2[nH]c(=O)n(CCCC(=O)NCc3ccccc3Cl)c(=O)c2cc1OC` was inactive: 20.5%; that for `Cc1cc(OCCn2c(C3CC(=O)N(Cc4ccc(F)cc4)C3)nc3ccccc32)ccc1Cl` (centres undefined) was inactive: -11.3%.
The value for `COCCCNC(=O)C1CCN(c2nnc(-n3cccc3CNc3ccc(C)cc3)s2)CC1` was inactive: -18.2%; that for `CCCn1cc(S(=O)(=O)c2cccc(Cl)c2)c(=O)c2cc(F)c(N3CCN(CC)CC3)cc21` was inactive: -9.33%.
With `O=C(CSc1nc2c(c(=O)[nH]1)CCCC2)Nc1cccc(O)c1`, the activation is inactive: 17.4%.
In the case of `COCCCNC(=O)Cn1c(=O)n(-c2cccc(C)c2)c(=O)c2c3c(sc21)CN(C(C)=O)CC3`, the activation is inactive: -4.21%.
The figure for `O=C1OC(c2ccc(O)cc2)(c2ccc(O)cc2)c2ccccc21` is inactive: 12%.
On to `COC(=O)c1ccccc1NC(=O)CSc1nc2sc3c(c2c(=O)[nH]1)CCCC3`, for which the activation was inactive: -7.68%.
As to `COc1cccc(CNC(=O)Cn2cc3c(n2)-c2c(oc(C(=O)N4CCOCC4)c2C)CC3)c1`, the activation was inactive: 10.3%.
The value for `COc1ccc(S(=O)(=O)N2Cc3ccccc3CC2C(=O)Nc2cccc(C)c2)cc1OC` (centres undefined) was inactive: -0.697%; that for `CCCCn1c(CCNC(=O)c2ccc(F)cc2)nc2ccccc21` was inactive: 39.3%; that for `COc1cc(C(=S)N2CCOCC2)ccc1O` was inactive: 23.8%.
The value for `COc1ccccc1CNc1nc(-c2ccco2)nn1C(=O)c1ccccc1[N+](=O)[O-]` was inactive: -12.3%; that for `COc1ccc(-c2cc(C(F)(F)F)nc(S(=O)(=O)CCCC(=O)Nc3ccccc3C(F)(F)F)n2)cc1OC` was inactive: -15.1%.
The figure for `Cc1cc(=O)n2c(C(=O)Nc3ccc(C)c(C)c3)c(C(=O)Nc3ccccc3)sc2n1` is inactive: -15.9%; for `CN(C)c1ccc(CNc2nc(-c3ccco3)nn2S(=O)(=O)c2ccc(Cl)cc2)cc1` it is inactive: -14.6%.
As for `CCN(C(=O)CSc1nnc(-c2ccc(Cl)cc2)o1)c1ccccc1`, the activation was inactive: 31.4%.
`CCc1cccc(C)c1NC(=O)C1CCCN(S(=O)(=O)c2cccc3nsnc23)C1` (centres undefined): the activation was inactive: 33.7%.
For the compound `CCc1ccccc1N(C)C(=O)C1CCCN(c2ncnc3onc(-c4ccc(F)cc4)c23)C1` (centres undefined), the activation is inactive: -13.7%.
Take `Cc1ccc(OCCn2c(CNc3cccc(C)c3)nc3ccccc32)cc1`: the activation was inactive: -20.6%.
The figure for `CCCN1CCc2nc(N3CCN(CC)CC3)ncc2C1` is inactive: -13.2%.
The figure for `CCOc1cccc(C(=O)Nc2c(C(=O)c3ccc(OC)cc3)oc3ccccc23)c1` is inactive: -10.3%.
Turning to `COc1ccccc1CNc1cc(-c2ccccc2)nc2nncn12`, the activation was inactive: -25.9%.
The figure for `CS(=O)(=O)NCC(c1ccco1)N1CCN(c2ccccc2)CC1` (centres undefined) is inactive: -24.9%; for `CC(=O)c1ccc(C(=O)N(CCCN(C)C)c2nc3c(C)c(C)ccc3s2)cc1` it is inactive: 7.35%.
The figure for `COc1ccc(N2Cc3cccc(C(=O)Nc4ccc(C(C)C)cc4)c3C2=O)cc1` is inactive: -7.56%; for `CCCCOC(=O)c1ccc(NC(=O)c2cc(-c3ccccc3)on2)cc1` it is inactive: -0.556%.
On to `O=C(CN(c1ccc(Cl)c(C(F)(F)F)c1)S(=O)(=O)c1ccccc1)N1CCc2ccccc2C1`, for which the activation was inactive: -5.36%.
The value for `C=CCc1ccc(O)c(OC)c1` was inactive: 19.8%; that for `Cc1nc2ccn(Cc3cccs3)c(=O)c2cc1C(=O)N1CCN(c2ccc(F)cc2)CC1` was inactive: -18.7%; that for `Cc1ccc(NC(=O)c2sc(-n3nc(C)c(CCC(C)C)c3C)nc2C)cc1C` was inactive: -11.1%.
The value for `CCc1ccc(NC(=O)Cn2c(=O)c(-c3ccccc3NC(C)=O)nc3ccccc32)cc1` was inactive: -17.2%; that for `OC[C@@H](O)[C@@H](O)[C@H](O)[C@H](O)CO` was inactive: -15.5%.
With `O=C(NCc1ccc(F)cc1)c1ccc(CS(=O)(=O)c2ccc(Cl)cc2)o1`, the activation is inactive: 2.43%.
The value for `Oc1c(C(c2ccc(Cl)cc2Cl)N2CCOCC2)sc2nc(-c3ccco3)nn12` (centres undefined) was active: 89.9%.
As for `CC(=O)N[C@@H](Cc1ccc(O)cc1)C(=O)O`, the activation was inactive: 2.39%.
Consider `COc1cccc(CNC(=O)CSc2nc(=O)[nH]c3c2CCCC3)c1`, for which the activation was inactive: -1.04%.
Take `CCn1ccc2cc(S(=O)(=O)N3CCCN(C(=O)Nc4ccccc4C(F)(F)F)CC3)ccc21`: the activation was inactive: -1.48%.
The value for `CCOc1ccc(S(=O)(=O)N(CC(=O)NCCSCc2ccc(C)cc2)c2ccccc2)cc1` was inactive: 12.9%; that for `Cc1ccc2c(=O)cc(C(=O)Nc3nnc(CC(C)C)s3)oc2c1C` was inactive: 0.246%.
As for `Cc1cccc(Cn2c(=O)n(CCC(=O)NCc3ccc4c(c3)OCO4)c(=O)c3sccc32)c1`, the activation is inactive: -29.4%.
`CC1CCN(S(=O)(=O)c2ccc(N3CCCCS3(=O)=O)cc2)CC1`: the activation was inactive: 10.5%.
Turning to `COc1ccc(CCNC(=O)Cn2cc(S(=O)(=O)Cc3ccccc3F)c3ccccc32)cc1OC`, the activation was inactive: 3.63%.
The value for `O=C(CC1N=C2c3ccccc3N=C(SCC(=O)Nc3cccc(Cl)c3)N2C1=O)NCc1cccs1` (centres undefined) was inactive: -28%.
Take `Cc1ccc(C)n1-c1nnc(N2CCC(C(=O)Nc3ccccc3Br)CC2)s1`: the activation is inactive: -11.3%.
The value for `CCc1ccc(NC(=O)c2ccc3c(c2)N(Cc2ccc(C)cc2)CCS3)cc1` was inactive: -13.4%; that for `CCn1c(SCC(=O)Nc2ccc(C)cc2Br)nnc1-c1nonc1NC(C)=O` was inactive: -9.89%.
The value for `COc1ccc2c(c1)Cc1sc(NC(=O)c3ccccc3Br)nc1-2` was inactive: -21.9%; that for `COc1ccccc1C(=O)NCc1ccc2c(c1)CCN2C(=O)c1cccc(C)c1` was inactive: -9.45%; that for `COc1ccc(N2CCN(C(=O)C3CCN(S(=O)(=O)c4cnc[nH]4)CC3)CC2)cc1` was inactive: -4.74%.
With `CCOC(=O)Cn1c(=O)oc2cc(S(=O)(=O)Nc3cc(OC)cc(OC)c3)ccc21`, the activation was inactive: 11.4%.
The value for `COC(=O)C1=C(C)NC(COC(N)=O)=C(C(=O)OC(C)C)C1c1cccc(Cl)c1Cl` (centres undefined) was active: 86.1%; that for `CCc1ccccc1Nc1nn2c(=O)c3ccc(C(=O)NCc4cccs4)cc3nc2s1` was inactive: -34.5%.
